The values below come from publication PMC4336329 (PLoS ONE, 2015).

In all, about 310,000 compounds went through this assay and about 14,000 (4.5%) showed an effect of 50% or more. The effect is printed as a negative number. This is one part of the list.
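Note: peak tail current of the secondary pulse compared with the same well before compound.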

The target in this experiment is human ether-à-go-go-related gene (hERG) potassium channel (human, UniProt Q12809). Put plainly: primary screen, population patch clamp on CHO cells stably expressing hERG.
Chain of human ether-à-go-go-related gene (hERG) potassium channel (Q12809 whole entry, looked up): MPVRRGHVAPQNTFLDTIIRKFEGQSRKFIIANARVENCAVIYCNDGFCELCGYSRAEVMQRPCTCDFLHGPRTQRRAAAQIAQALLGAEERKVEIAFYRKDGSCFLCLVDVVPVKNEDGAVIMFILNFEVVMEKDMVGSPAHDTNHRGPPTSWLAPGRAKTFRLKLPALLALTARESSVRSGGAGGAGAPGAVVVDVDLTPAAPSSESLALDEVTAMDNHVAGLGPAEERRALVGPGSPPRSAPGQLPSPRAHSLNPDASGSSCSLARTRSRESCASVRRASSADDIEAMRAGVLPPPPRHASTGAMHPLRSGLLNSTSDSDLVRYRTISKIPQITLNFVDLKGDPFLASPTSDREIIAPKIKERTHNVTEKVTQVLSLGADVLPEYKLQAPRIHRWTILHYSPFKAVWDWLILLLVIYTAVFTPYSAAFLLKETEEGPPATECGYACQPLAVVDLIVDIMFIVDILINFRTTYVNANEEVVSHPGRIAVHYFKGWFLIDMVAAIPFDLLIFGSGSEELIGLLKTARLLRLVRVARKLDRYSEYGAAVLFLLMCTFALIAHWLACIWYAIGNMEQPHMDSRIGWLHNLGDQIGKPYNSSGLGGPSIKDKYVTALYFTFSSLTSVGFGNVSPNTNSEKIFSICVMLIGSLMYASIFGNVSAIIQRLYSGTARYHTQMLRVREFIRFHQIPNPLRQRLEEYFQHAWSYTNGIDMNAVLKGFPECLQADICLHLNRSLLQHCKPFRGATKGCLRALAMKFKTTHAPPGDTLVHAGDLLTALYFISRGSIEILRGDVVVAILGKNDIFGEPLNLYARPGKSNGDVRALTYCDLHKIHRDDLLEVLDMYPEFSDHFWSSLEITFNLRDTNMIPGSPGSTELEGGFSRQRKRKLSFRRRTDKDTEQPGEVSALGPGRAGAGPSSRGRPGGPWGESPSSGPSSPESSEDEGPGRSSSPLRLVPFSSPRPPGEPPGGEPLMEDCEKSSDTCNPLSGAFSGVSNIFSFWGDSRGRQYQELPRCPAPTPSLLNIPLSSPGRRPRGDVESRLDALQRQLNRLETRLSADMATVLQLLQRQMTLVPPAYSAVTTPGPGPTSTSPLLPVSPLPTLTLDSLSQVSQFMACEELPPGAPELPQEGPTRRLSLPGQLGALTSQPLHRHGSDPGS
Consider `COc1ccc(S(=O)(=O)N2CCN(C(=S)NC3CCCCC3)CC2)cc1`, for which the “hERG current change (%, negative = inhibition) at 10uM” value is 8.69%.

For `CC(=O)N[C@H](Cc1c[nH]c2ccccc12)C(=O)O`, the “hERG current change (%, negative = inhibition) at 10uM” value came to 9.29%.

In the case of `Cc1nc(NCCc2ccccc2)c2nnn(Cc3ccccc3)c2n1`, the “hERG current change (%, negative = inhibition) at 10uM” value was 20.7%.

For the molecule `CC(Nc1nc(-c2ccc(F)cc2)cs1)c1nc2cc(Cl)c(N3CCCCC3)cc2n1CCCO` (centres unmarked), the “hERG current change (%, negative = inhibition) at 10uM” value is 7.15%.

For `OCCCNc1nc(-c2ccc(Br)cc2)nnc1-c1ccc(Cl)cc1`, the “hERG current change (%, negative = inhibition) at 10uM” value is reported as -52.3%.

For the molecule `COc1ccc(OC)c(/C=N/N2CCN(c3ccc(Cl)cc3)CC2)c1`, the “hERG current change (%, negative = inhibition) at 10uM” value is 8.58%.

Take `CC1SCC(=O)N(CC(=O)Nc2ccc3c(c2)OCCO3)C1=O` (centres unmarked): the “hERG current change (%, negative = inhibition) at 10uM” value was -0.177%.

Turning to `CCOc1ccc(C(C)C)cc1S(=O)(=O)Nc1ccc(Cl)cn1`, the “hERG current change (%, negative = inhibition) at 10uM” value is 13.6%.

For `CC1COC(Cn2c3ccccc3c3ccccc32)O1` (centres unmarked), the “hERG current change (%, negative = inhibition) at 10uM” value turned out to be 8.06%.

As to `COc1ccc(CCC(C)NC(=O)CCc2ccccc2)c(OC)c1` (centres unmarked), the “hERG current change (%, negative = inhibition) at 10uM” value is reported as -26.8%.

`CC(CCC(=O)O)C1CC[C@@]2(C)C3C(=O)CC4C(C)(C)C(O)CC[C@]4(C)C3C(=O)C[C@]12C` (some centres unmarked): the “hERG current change (%, negative = inhibition) at 10uM” value amounted to 20.6%.

For the molecule `CS(=O)(=O)N1CCc2cc(C(=O)Nc3cccc([N+](=O)[O-])c3)ccc21`, the “hERG current change (%, negative = inhibition) at 10uM” value was found to be 13.6%.

With `COc1cc(NC(=O)c2ccc(Cl)cc2)c(OC)cc1NC(=O)CN1CCOCC1`, the “hERG current change (%, negative = inhibition) at 10uM” value is listed as -21.4%.

As to `COc1ccc(OC)c(-n2c(-c3cccc(C)c3)n[nH]c2=S)c1`, the “hERG current change (%, negative = inhibition) at 10uM” value worked out at 10.8%.

As for `Cc1nn(-c2ccccc2)c2c1C(c1cccs1)C(C#N)=C(N)O2` (centres unmarked), the “hERG current change (%, negative = inhibition) at 10uM” value turned out to be 10.3%.

Turning to `COc1cc(NC(=O)c2cc(C)on2)cc(C(=O)Nc2cccc(C(F)(F)F)c2)c1`, the “hERG current change (%, negative = inhibition) at 10uM” value is -9.7%.

As for `CN1CC(c2ccc(Cl)c(Cl)c2)[C@@]2(COc3ccccc3C2=O)[C@@]12C(=O)Nc1ccccc12` (some centres unmarked), the “hERG current change (%, negative = inhibition) at 10uM” value worked out at 11%.

Turning to `Cn1c(N2CCN(C(=O)NC34CC5CC(CC(C5)C3)C4)CC2)nc2ccccc21`, the “hERG current change (%, negative = inhibition) at 10uM” value was found to be 23.2%.

As to `COc1ccc(C(=O)OCC(=O)Nc2ncc([N+](=O)[O-])s2)cc1OC`, the “hERG current change (%, negative = inhibition) at 10uM” value was found to be 8.67%.

In the case of `Cc1cc(C)cc(OCc2nnc(SCC(=O)c3ccccc3)o2)c1`, the “hERG current change (%, negative = inhibition) at 10uM” value amounted to 13.8%.

As for `O=C(Cn1cnnn1)NCCc1ccc(Cl)cc1Cl`, the “hERG current change (%, negative = inhibition) at 10uM” value is -19.6%.

On to `Cc1cc(C)c(C(=O)/C=C/c2ccc(C(C)C)cc2)c(=O)[nH]1`, for which the “hERG current change (%, negative = inhibition) at 10uM” value came out at 10%.

In the case of `CCCOc1ccc(N2C(=O)CC(N(Cc3ccc(OC)cc3)C(=S)Nc3ccccc3)C2=O)cc1` (centres unmarked), the “hERG current change (%, negative = inhibition) at 10uM” value was -6.22%.
